Consider four molecules from PMC3060616.

In experiment [1] the target is T1, LpoA (YraM), endogenous (E. coli (endogenous in E. coli)) (UniProt P45464).
T1 sequence: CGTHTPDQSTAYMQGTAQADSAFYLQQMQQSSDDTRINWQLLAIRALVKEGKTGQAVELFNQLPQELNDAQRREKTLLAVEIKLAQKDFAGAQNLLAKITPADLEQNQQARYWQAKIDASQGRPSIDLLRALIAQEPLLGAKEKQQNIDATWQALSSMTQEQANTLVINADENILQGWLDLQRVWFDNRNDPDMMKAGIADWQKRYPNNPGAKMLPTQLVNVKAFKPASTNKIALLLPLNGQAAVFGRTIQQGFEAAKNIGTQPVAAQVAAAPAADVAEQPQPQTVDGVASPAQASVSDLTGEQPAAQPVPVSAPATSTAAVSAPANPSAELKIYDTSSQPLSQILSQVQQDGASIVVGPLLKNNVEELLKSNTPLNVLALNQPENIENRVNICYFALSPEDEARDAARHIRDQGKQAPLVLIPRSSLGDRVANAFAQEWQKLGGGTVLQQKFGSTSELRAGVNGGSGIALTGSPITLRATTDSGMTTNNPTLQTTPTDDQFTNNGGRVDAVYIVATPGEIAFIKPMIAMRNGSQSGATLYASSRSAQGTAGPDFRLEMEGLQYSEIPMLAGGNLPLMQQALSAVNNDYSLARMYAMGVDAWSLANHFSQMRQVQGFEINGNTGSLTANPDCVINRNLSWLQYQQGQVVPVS
Description: cross-linking + co-IP; E. coli cells treated with DTSSP cross-linker in vivo; membrane fractions immunoprecipitated with LpoA or PBP1B antibodies and protein G-agarose; cross-link reverted with reducing agent; immunodetection of PBP1A or LpoB.

The target of experiment [2] is T2, LpoA (YraM), immobilised / added protein (E. coli) (UniProt P45464).
T2 sequence: T1 sequence
The experiment can be described thus: pull-down; affinity chromatography: E. coli membrane fraction applied in 400 mM NaCl to sepharose columns with immobilised protein, empty sepharose as control; washed, eluted with 2 M NaCl; SDS-PAGE, Western blot and immunodetection of Lpo proteins or PBPs; only the target purified. A general note: In western blotting, separated proteins are transferred to a membrane and probed.

The target of experiment [3] is T3, LpoB (YcfM), immobilised / added protein (E. coli) (UniProt P0AB38).
T3 sequence: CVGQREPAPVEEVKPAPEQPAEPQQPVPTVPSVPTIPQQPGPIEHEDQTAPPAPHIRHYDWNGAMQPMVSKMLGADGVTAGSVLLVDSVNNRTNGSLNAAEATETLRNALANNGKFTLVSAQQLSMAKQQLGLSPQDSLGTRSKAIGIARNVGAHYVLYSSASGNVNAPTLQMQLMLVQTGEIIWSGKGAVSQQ
The description is as above.

For experiment [4], the target named is T4, PBP1B, endogenous (E. coli (endogenous in E. coli)) (UniProt P02919).
T4 sequence: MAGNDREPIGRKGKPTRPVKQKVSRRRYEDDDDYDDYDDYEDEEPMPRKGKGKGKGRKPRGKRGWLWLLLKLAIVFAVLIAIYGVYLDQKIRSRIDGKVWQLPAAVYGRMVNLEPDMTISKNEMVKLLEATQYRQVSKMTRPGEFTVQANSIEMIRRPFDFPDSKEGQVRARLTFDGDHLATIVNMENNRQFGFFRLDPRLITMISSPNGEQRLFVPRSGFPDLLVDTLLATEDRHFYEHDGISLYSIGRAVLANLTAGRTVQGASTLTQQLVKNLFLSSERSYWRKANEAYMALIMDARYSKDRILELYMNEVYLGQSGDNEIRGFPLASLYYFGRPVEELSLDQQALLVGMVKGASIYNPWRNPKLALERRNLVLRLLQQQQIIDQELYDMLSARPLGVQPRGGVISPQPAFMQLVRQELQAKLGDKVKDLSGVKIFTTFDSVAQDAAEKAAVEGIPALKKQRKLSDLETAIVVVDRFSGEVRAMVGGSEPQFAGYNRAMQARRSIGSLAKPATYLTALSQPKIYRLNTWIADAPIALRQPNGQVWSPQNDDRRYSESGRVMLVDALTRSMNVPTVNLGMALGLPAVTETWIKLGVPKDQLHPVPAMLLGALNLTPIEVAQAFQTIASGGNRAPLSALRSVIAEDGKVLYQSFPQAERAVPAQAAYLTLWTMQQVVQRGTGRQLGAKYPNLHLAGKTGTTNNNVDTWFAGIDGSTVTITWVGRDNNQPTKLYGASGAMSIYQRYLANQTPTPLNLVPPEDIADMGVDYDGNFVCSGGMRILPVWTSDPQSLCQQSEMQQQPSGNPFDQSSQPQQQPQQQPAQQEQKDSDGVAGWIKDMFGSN
Description: cross-linking + co-IP; E. coli cells treated with DTSSP cross-linker in vivo; membrane fractions immunoprecipitated with LpoA or PBP1B antibodies and protein G-agarose; cross-link reverted with reducing agent; immunodetection of PBP1A or LpoB.

The target in experiment [5] is T5, PBP1B, purified (E. coli) (UniProt P02919).
T5 sequence: T4 sequence
The experiment can be described thus: pull-down; affinity chromatography: E. coli membrane fraction applied in 400 mM NaCl to sepharose columns with immobilised protein, empty sepharose as control; washed, eluted with 2 M NaCl; SDS-PAGE, Western blot and immunodetection of Lpo proteins or PBPs; only the target purified.

Experiment [6] concerns the target T6, PBP1A, purified (E. coli) (UniProt P02918).
T6 sequence: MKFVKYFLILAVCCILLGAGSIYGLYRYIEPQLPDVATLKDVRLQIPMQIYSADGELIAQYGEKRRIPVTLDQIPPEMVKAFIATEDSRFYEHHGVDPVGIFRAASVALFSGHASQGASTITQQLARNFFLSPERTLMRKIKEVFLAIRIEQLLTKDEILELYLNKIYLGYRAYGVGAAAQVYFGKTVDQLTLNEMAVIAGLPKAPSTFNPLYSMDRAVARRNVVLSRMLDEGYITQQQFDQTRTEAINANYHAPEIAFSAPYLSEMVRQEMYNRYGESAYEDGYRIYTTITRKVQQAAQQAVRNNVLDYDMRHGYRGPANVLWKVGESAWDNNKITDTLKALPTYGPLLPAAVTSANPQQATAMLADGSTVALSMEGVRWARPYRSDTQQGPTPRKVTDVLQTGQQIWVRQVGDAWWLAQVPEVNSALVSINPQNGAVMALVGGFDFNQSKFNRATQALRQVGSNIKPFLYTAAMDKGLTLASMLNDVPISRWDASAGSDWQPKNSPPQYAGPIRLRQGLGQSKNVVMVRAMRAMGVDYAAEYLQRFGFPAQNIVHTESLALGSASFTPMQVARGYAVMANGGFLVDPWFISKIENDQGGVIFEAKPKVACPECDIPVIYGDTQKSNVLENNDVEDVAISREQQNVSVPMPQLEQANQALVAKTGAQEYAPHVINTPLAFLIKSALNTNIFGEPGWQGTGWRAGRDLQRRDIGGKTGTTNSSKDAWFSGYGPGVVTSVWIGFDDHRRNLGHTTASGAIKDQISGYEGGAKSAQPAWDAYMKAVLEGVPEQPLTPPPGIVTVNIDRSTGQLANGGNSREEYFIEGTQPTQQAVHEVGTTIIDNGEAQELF
Described as above.

No constants are given. Whether binding was seen depends on the method and setting. In cells and extracts the contact can be indirect. Some results given as binding are weak or reduced against the parent protein; the word gives no strength.

B1: PBP1A, endogenous (enzyme, UniProt P02918 1-850)
chain: T6 sequence
Take B1: the binding entry in experiment [1] is given as “binds”; in experiment [2], “binds”; in experiment [3] it was “no binding”.

B2: LpoB (YcfM), endogenous (protein, UniProt P0AB38 20-213)
chain: T3 sequence
For the molecule B2, the binding entry in experiment [4] and in experiment [5] was “binds” each time.

B3: LpoA (YraM), endogenous (protein, UniProt P45464 27-678)
chain: T1 sequence
In the case of B3, the binding result in experiment [6] is on record as “binds”.

B4: PBP1B, endogenous (enzyme, UniProt P02919 1-844)
chain: T4 sequence
As to B4, the values for the binding entry in experiment [2] and in experiment [3] were “no binding” and “binds”, respectively.
